Variants at the floor of the assay are shown more often than the library holds them.
B1: tRNA (parent)
chain: CUCUCGGUAGCCAAGUUGGUUUAAGGCGCAAGACUUUAAUUUAUCACUACGAAAUCUUGAGAUCGGGCGUUCGACUCGCCCCCGGGAGAUUUUUUCCUCGAGCAA

Variants of: B1
Assay: nonsense suppression (GFP-seq) (ratio to wild type); higher = more function; SUP4oc tRNA, yeast GFP reporter sort-seq
Outline: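 Yeast were grown in raffinose/galactose medium with 80 mg/L adenine, each strain bearing a genome-integrated ochre-suppressor tRNA variant from a ~3% random-mutation library, a galactose-driven GFP ochre reporter, and RFP. After sorting into GFP/RFP bins, every bin was sequenced on an Illumina platform at phred ≥30. The GFPSEQ value, a measure of nonsense suppression, is the weighted bin median GFP/RFP relative to the unmutated parent tRNA, using each variant's estimated cell share per bin as the weight. Only variants with ≥100 reads and ≥30 cells were included.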

C5G A9C G32A G65C and C5G C56G cannot be ordered by nonsense suppression: no more than 0.026 for the first, no more than 0.026 for the second.

C5G A87U and C5G G65A cannot be ordered by nonsense suppression: no more than 0.026 for the first, no more than 0.026 for the second.

C5G G32C C72U and C5G A30G U71C cannot be ordered by nonsense suppression: no more than 0.026 for the first, no more than 0.026 for the second.

C5G C11A U57G and C5A C72A U76G cannot be ordered by nonsense suppression: no more than 0.026 for the first, no more than 0.026 for the second.

C5G U58C and C5A U8C A9U C80A cannot be ordered by nonsense suppression: no more than 0.026 for the first, no more than 0.026 for the second.

C5A G67C and C5A G26U A33U cannot be ordered by nonsense suppression: no more than 0.026 for the first, no more than 0.026 for the second.

C5G G66U C77U and C5G G66U U71C cannot be ordered by nonsense suppression: no more than 0.026 for the first, no more than 0.026 for the second.

C5G U35C U71A and C5A C79A cannot be ordered by nonsense suppression: no more than 0.026 for the first, no more than 0.026 for the second.

C5G A9C U35G A54C C83A and C5U A13C A31G cannot be ordered by nonsense suppression: no more than 0.026 for the first, no more than 0.026 for the second.

C5A U76G and C5G U22G U70A U76C cannot be ordered by nonsense suppression: no more than 0.026 for the first, no more than 0.026 for the second.

C5A U58C G86U and C5A U57G G67U cannot be ordered by nonsense suppression: no more than 0.026 for the first, no more than 0.026 for the second.

C5G G6U G84A G88U A89U and C5A G66C cannot be ordered by nonsense suppression: no more than 0.026 for the first, no more than 0.026 for the second.

C5G A60G and C5G A60U cannot be ordered by nonsense suppression: no more than 0.026 for the first, no more than 0.026 for the second.

C5G G25U A31G A33G C72A and C5G C34A G86C cannot be ordered by nonsense suppression: no more than 0.026 for the first, no more than 0.026 for the second.

C5G G32C G65U and C5A G59C G73U C80U cannot be ordered by nonsense suppression: no more than 0.026 for the first, no more than 0.026 for the second.

C5A U20G A33G U55C U57G and C5U A9U G18U cannot be ordered by nonsense suppression: no more than 0.026 for the first, no more than 0.026 for the second.

C5A C34G C72G and C5G A24U U57C G66U cannot be ordered by nonsense suppression: no more than 0.026 for the first, no more than 0.026 for the second.

C5A U22C G86A and C5G U16G cannot be ordered by nonsense suppression: no more than 0.026 for the first, no more than 0.026 for the second.

C5A U58C and C5G A9U cannot be ordered by nonsense suppression: no more than 0.026 for the first, no more than 0.026 for the second.

C5G G25A C27U A30G G32A and C5A U35G U57A cannot be ordered by nonsense suppression: no more than 0.026 for the first, no more than 0.026 for the second.

C5A U8A and C5A U8G cannot be ordered by nonsense suppression: no more than 0.026 for the first, no more than 0.026 for the second.

C5G G25C G69C C80A and C5G U21G C79U cannot be ordered by nonsense suppression: no more than 0.026 for the first, no more than 0.026 for the second.

C5G G69U A74U C81G and C5A U16C G28C G86A G88C cannot be ordered by nonsense suppression: no more than 0.026 for the first, no more than 0.026 for the second.

C5G C27U A60C C80A and C5G G25U G67A A89G cannot be ordered by nonsense suppression: no more than 0.026 for the first, no more than 0.026 for the second.

C5A U20A C75G and C5G G61A cannot be ordered by nonsense suppression: no more than 0.026 for the first, no more than 0.026 for the second.

C5A G7A U20G and C5A U16A G26C U71C C77A C81U cannot be ordered by nonsense suppression: no more than 0.026 for the first, no more than 0.026 for the second.

C5G C82G G88U and C5G C56U C79A cannot be ordered by nonsense suppression: no more than 0.026 for the first, no more than 0.026 for the second.

C5A G6U C11U G26U U63G and C5G G19A U35A G88U cannot be ordered by nonsense suppression: no more than 0.026 for the first, no more than 0.026 for the second.

C5A G6A U16G and C5G G15A U16A U17C A23G G61U A87U cannot be ordered by nonsense suppression: no more than 0.026 for the first, no more than 0.026 for the second.

C5G A24G C56A and C5G C29U C56A U63C cannot be ordered by nonsense suppression: no more than 0.026 for the first, no more than 0.026 for the second.

C5G A60C C64A and C5A G7A cannot be ordered by nonsense suppression: no more than 0.026 for the first, no more than 0.026 for the second.

C5G C11U U17A G66A and C5G G7C A13U A14U G28A U57G G66C cannot be ordered by nonsense suppression: no more than 0.026 for the first, no more than 0.026 for the second.

C5G G88A and C5A C34G A89U cannot be ordered by nonsense suppression: no more than 0.026 for the first, no more than 0.026 for the second.

C5G A24C C64A and C5G C64U G78C cannot be ordered by nonsense suppression: no more than 0.026 for the first, no more than 0.026 for the second.

C5G U55G C64G G73C and C5G G6U G28A A89G cannot be ordered by nonsense suppression: no more than 0.026 for the first, no more than 0.026 for the second.

C5G G85A and C5G A74C G88A cannot be ordered by nonsense suppression: no more than 0.026 for the first, no more than 0.026 for the second.

C5A C29G C80U and C5A U57G G66A G84C cannot be ordered by nonsense suppression: no more than 0.026 for the first, no more than 0.026 for the second.

C5A U22C and C5G U35A U63A U76A C80G cannot be ordered by nonsense suppression: no more than 0.026 for the first, no more than 0.026 for the second.

C5G C27U A62C U76G and C5G A31U G66C cannot be ordered by nonsense suppression: no more than 0.026 for the first, no more than 0.026 for the second.

C5G C11A C72G and C5G G6A U71G cannot be ordered by nonsense suppression: no more than 0.026 for the first, no more than 0.026 for the second.

C5U A9G A23C A24C and C5A C64A G67A cannot be ordered by nonsense suppression: no more than 0.026 for the first, no more than 0.026 for the second.

C5A C56A G67A G78U and C5G A14U G26U A30G G73C cannot be ordered by nonsense suppression: no more than 0.026 for the first, no more than 0.026 for the second.

C5A U63A G66C and C5G A74U cannot be ordered by nonsense suppression: no more than 0.026 for the first, no more than 0.026 for the second.

C5A C29G and C5G G28U cannot be ordered by nonsense suppression: no more than 0.026 for the first, no more than 0.026 for the second.

C5A G18U A24G and C5G U35G U55C U63C cannot be ordered by nonsense suppression: no more than 0.026 for the first, no more than 0.026 for the second.

C5A U16A A24G A33G C80A and C5G G10A U21C cannot be ordered by nonsense suppression: no more than 0.026 for the first, no more than 0.026 for the second.

C5G C27G C75A and C5A G15A A33G cannot be ordered by nonsense suppression: no more than 0.026 for the first, no more than 0.026 for the second.

C5G A33C C77G A87U and C5G A54U G66C G67U cannot be ordered by nonsense suppression: no more than 0.026 for the first, no more than 0.026 for the second.

C5A C29U A89G and C5G G7U C29A cannot be ordered by nonsense suppression: no more than 0.026 for the first, no more than 0.026 for the second.

C5A U20A and C5G U16G A89U cannot be ordered by nonsense suppression: no more than 0.026 for the first, no more than 0.026 for the second.

First: C5A C12U A14G A62G
Second: C5G G84U
The nonsense suppression of the first is lower: no more than 0.026 for the first, 0.475 for the second.

C5A C27G A89U and C5G C29G G67U cannot be ordered by nonsense suppression: no more than 0.026 for the first, no more than 0.026 for the second.

C5G C64G A74G C75A and C5G G18C C81G cannot be ordered by nonsense suppression: no more than 0.026 for the first, no more than 0.026 for the second.

C5G A33U G59C and C5A C12A U55G G86C cannot be ordered by nonsense suppression: no more than 0.026 for the first, no more than 0.026 for the second.

C5A U16A C79G and C5G G19C G59A G78A cannot be ordered by nonsense suppression: no more than 0.026 for the first, no more than 0.026 for the second.

C5A U16A C83A and C5G G25C G69C cannot be ordered by nonsense suppression: no more than 0.026 for the first, no more than 0.026 for the second.

C5G G7U and C5G G7A A33U cannot be ordered by nonsense suppression: no more than 0.026 for the first, no more than 0.026 for the second.

C5G U70G and C5A C64G cannot be ordered by nonsense suppression: no more than 0.026 for the first, no more than 0.026 for the second.

Going from C5G U17G U63C G85C to C5U, the nonsense suppression rises from no more than 0.026 to 0.096.

C5G and C5G A24U G67C cannot be ordered by nonsense suppression: no more than 0.026 for the first, no more than 0.026 for the second.

C5G G10U A13U G28C G69A C82U and C5G U71C G85A cannot be ordered by nonsense suppression: no more than 0.026 for the first, no more than 0.026 for the second.

C5A C68G and C5G C34G G85C cannot be ordered by nonsense suppression: no more than 0.026 for the first, no more than 0.026 for the second.

C5A C12U C34A and C5G G32C C56G cannot be ordered by nonsense suppression: no more than 0.026 for the first, no more than 0.026 for the second.

C5A G26U U35G A54C G65A and C5A G15C G67C cannot be ordered by nonsense suppression: no more than 0.026 for the first, no more than 0.026 for the second.

C5G A13U G19U U35G A87G and C5G U57G U71G cannot be ordered by nonsense suppression: no more than 0.026 for the first, no more than 0.026 for the second.

C5G A13U U20A U21A A23U U63G and C5G G18U cannot be ordered by nonsense suppression: no more than 0.026 for the first, no more than 0.026 for the second.

C5A C12U G18U U70A C79U and C5G A30G C80U cannot be ordered by nonsense suppression: no more than 0.026 for the first, no more than 0.026 for the second.

C5A U55G U70G and C5A G19U U20G cannot be ordered by nonsense suppression: no more than 0.026 for the first, no more than 0.026 for the second.

C5G G10C and C5G U16G G78A cannot be ordered by nonsense suppression: no more than 0.026 for the first, no more than 0.026 for the second.

C5G U35A U58C G73U and C5G A13G G78U cannot be ordered by nonsense suppression: no more than 0.026 for the first, no more than 0.026 for the second.

C5A G6U U20C G86C and C5G G66A G69A cannot be ordered by nonsense suppression: no more than 0.026 for the first, no more than 0.026 for the second.

C5G U35G and C5G C12A cannot be ordered by nonsense suppression: no more than 0.026 for the first, no more than 0.026 for the second.

Compared with C5G C12G, C5G C83A A89C is lower in nonsense suppression: 0.174 for the first, no more than 0.026 for the second.

C5U A9U U35A U57G and C5A G15A U21A U58A cannot be ordered by nonsense suppression: no more than 0.026 for the first, no more than 0.026 for the second.

C5A U21A U63C C81G and C5G G69A U70A cannot be ordered by nonsense suppression: no more than 0.026 for the first, no more than 0.026 for the second.

C5A G18C and C5G A9U C11G A33C C77G G84A cannot be ordered by nonsense suppression: no more than 0.026 for the first, no more than 0.026 for the second.

C5A G25A G28U G59C C81G and C5A G25A G28U G59C C81U cannot be ordered by nonsense suppression: no more than 0.026 for the first, no more than 0.026 for the second.

C5G A33G G88U and C5A C79A A89C cannot be ordered by nonsense suppression: no more than 0.026 for the first, no more than 0.026 for the second.

C5A C27U C80G and C5A G25A cannot be ordered by nonsense suppression: no more than 0.026 for the first, no more than 0.026 for the second.

C5G A24U G85A and C5G U57G cannot be ordered by nonsense suppression: no more than 0.026 for the first, no more than 0.026 for the second.

C5G U57C and C5G G7C G19C A54G cannot be ordered by nonsense suppression: no more than 0.026 for the first, no more than 0.026 for the second.

C5G U21G and C5A C56G G88U cannot be ordered by nonsense suppression: no more than 0.026 for the first, no more than 0.026 for the second.

C5G G10C A33U and C5A G26U C29G C34G C81A cannot be ordered by nonsense suppression: no more than 0.026 for the first, no more than 0.026 for the second.

C5A U21A C56A showed a nonsense suppression of no more than 0.026.

— the RNAGym collection of RNA variant scans (doi:10.1101/gad.245936.114)
